Measurements from a collection of fitness landscapes (doi:10.1126/science.1257360).
This is one part of the list.

B1: PhoQ; a variant is named by its letters at X, in order, P23837 (parent)
chain: MKKLLRLFFPLSLRVRFLLATAAVVLVLSLAYGMVALIGYSVSFDKTTFRLLRGESNLFYTLAKWENNKLHVELPENIDKQSPTMTLIYDENGQLLWAQRDVPWLMKMIQPDWLKSNGFHEIEADVNDTSLLLSGDHSIQQQLQEVREDDDDAEMTHSVAVNVYPATSRMPKLTIVVVDTIPVELKSSYMVWSWFIYVLSANLLLVIPLLWVAAWWSLRPIEALAKEVRELEEHNRELLNPATTRELTSLVRNLNRLLKSERERYDKYRTTLTDLTHSLKTPLXXLQXXLRSLRSEKMSVSDAEPVMLEQISRISQQIGYYLHRASMRGGTLLSRELHPVAPLLDNLTSALNKVYQRKGVNISLDISPEISFVGEQNDFVEVMGNVLDNACKYCLEFVEISARQTDEHLYIVVEDDGPGIPLSKREVIFDRGQRVDTLRPGQGVGLAVAREITEQYEGKIVAGESMLGGARMEVIFGRQHSAPKDE

Variants of: B1
Assay: enrichment ratio after two sorts for PhoP signalling (ratio (wild type AVST 3.29)); higher = more functional
Conditions: with PhoP (E. coli)

Row | Variant | enrichment ratio
1 | SSYM | 4.79
2 | MHQR | ≤ 0.25
3 | PRFG | ≤ 0.25
4 | TKFM | 9.89
5 | GDCY | 7.84
6 | TQYW | ≤ 0.25
7 | RMDA | ≤ 0.25
8 | PQMR | ≤ 0.25
9 | AFRN | ≤ 0.25
10 | HDLI | ≤ 0.25
11 | FEMM | 5.97
12 | SQMR | ≤ 0.25
13 | MYWL | ≤ 0.25
14 | GQTV | 4.75
15 | MRGG | ≤ 0.25
16 | WGPL | ≤ 0.25
17 | TLAK | ≤ 0.25
18 | SPQL | ≤ 0.25
19 | PAQN | ≤ 0.25
20 | GHEA | ≤ 0.25
21 | QHDL | 10.4
22 | NQHY | ≤ 0.25
23 | VYSM | ≤ 0.25
24 | HCDF | ≤ 0.25

Row | Variant | enrichment ratio
25 | MTNW | ≤ 0.25
26 | VFQD | ≤ 0.25
27 | VHAD | ≤ 0.25
28 | SGMQ | 15.4
29 | MGGC | 6.75
30 | KCWW | ≤ 0.25
31 | AWVA | ≤ 0.25
32 | EKAC | ≤ 0.25
33 | GPMI | ≤ 0.25
34 | WDES | ≤ 0.25
35 | VKTK | ≤ 0.25
36 | IMSP | ≤ 0.25
37 | QIAQ | ≤ 0.25
38 | FTCL | 9.73
39 | FPYL | ≤ 0.25
40 | TCQH | ≤ 0.25
41 | NPTP | ≤ 0.25
42 | PDYD | ≤ 0.25
43 | AQEH | ≤ 0.25
44 | QYWI | ≤ 0.25
45 | TDAM | 17.8
46 | MGKH | ≤ 0.25
47 | PYTV | ≤ 0.25
48 | FEDK | ≤ 0.25

Row | Variant | enrichment ratio
49 | EVCG | ≤ 0.25
50 | ENRF | ≤ 0.25
51 | DKCM | ≤ 0.25
52 | RIGT | ≤ 0.25
53 | MQMD | ≤ 0.25
54 | NMPI | ≤ 0.25
55 | LCFA | ≤ 0.25
56 | WEGK | ≤ 0.25
57 | GDKA | ≤ 0.25
58 | AWPD | ≤ 0.25
59 | SFPF | ≤ 0.25
60 | MMYH | ≤ 0.25
61 | LLCS | ≤ 0.25
62 | NDTK | ≤ 0.25
63 | FNSA | ≤ 0.25
64 | SWLM | ≤ 0.25
65 | GWIT | ≤ 0.25
66 | VCVW | ≤ 0.25
67 | FQIV | ≤ 0.25
68 | SGKE | ≤ 0.25
69 | MRMP | ≤ 0.25
70 | PSRI | ≤ 0.25
71 | DYEK | ≤ 0.25
72 | TRPY | ≤ 0.25

Row | Variant | enrichment ratio
73 | NWPL | ≤ 0.25
74 | SVGR | 1.46
75 | HAYI | ≤ 0.25
76 | KIFF | ≤ 0.25
77 | YITL | 0.736
78 | TRGG | ≤ 0.25
79 | YKVK | ≤ 0.25
80 | YYQI | ≤ 0.25
81 | QSKQ | ≤ 0.25
82 | GSHP | ≤ 0.25
83 | YGEE | ≤ 0.25
84 | NMSE | ≤ 0.25
85 | MGSH | 1.72
86 | GQRM | ≤ 0.25
87 | LFIK | ≤ 0.25
88 | RPQM | ≤ 0.25
89 | RVEA | ≤ 0.25
90 | ELAP | ≤ 0.25
91 | VIYM | ≤ 0.25
92 | IQVC | ≤ 0.25
93 | VDGV | ≤ 0.25
94 | LIMY | ≤ 0.25
95 | PNDP | ≤ 0.25
96 | QGFV | ≤ 0.25

Row | Variant | enrichment ratio
97 | HNSD | ≤ 0.25
98 | KQTR | ≤ 0.25
99 | MMFD | ≤ 0.25
100 | RMIT | ≤ 0.25
101 | HVFS | ≤ 0.25
102 | FMSP | ≤ 0.25
103 | FCQP | ≤ 0.25
104 | KKCL | 1.66
105 | APIH | ≤ 0.25
106 | QCGF | 3.02
107 | NPIG | ≤ 0.25
108 | YVYA | ≤ 0.25
109 | IVAT | ≤ 0.25
110 | ASSH | 9.29
111 | EACQ | ≤ 0.25
112 | EQNL | ≤ 0.25
113 | WYGL | ≤ 0.25
114 | KDMA | ≤ 0.25
115 | EMMP | ≤ 0.25
116 | IPRR | ≤ 0.25
117 | MPTY | ≤ 0.25
118 | KMIG | ≤ 0.25
119 | MCWR | ≤ 0.25
120 | KFAL | ≤ 0.25

Row | Variant | enrichment ratio
121 | HTPM | ≤ 0.25
122 | LKWD | ≤ 0.25
123 | LDYS | ≤ 0.25
124 | APRD | ≤ 0.25
125 | APVC | ≤ 0.25
126 | MTRY | ≤ 0.25
127 | FTRS | ≤ 0.25
128 | ILIA | ≤ 0.25
129 | LSRY | ≤ 0.25
130 | NKWI | ≤ 0.25
131 | FILS | 0.438
132 | QGNL | ≤ 0.25
133 | KIQF | ≤ 0.25
134 | VHKP | ≤ 0.25
135 | RPNY | ≤ 0.25
136 | LAAF | ≤ 0.25
137 | TIHR | ≤ 0.25
138 | YITC | ≤ 0.25
139 | SNWA | ≤ 0.25
140 | LAHG | ≤ 0.25
141 | SHEF | ≤ 0.25
142 | SYEH | ≤ 0.25
143 | GTND | ≤ 0.25
144 | VWNC | ≤ 0.25

Row | Variant | enrichment ratio
145 | LICW | ≤ 0.25
146 | AARW | ≤ 0.25
147 | YCFE | ≤ 0.25
148 | FRNP | ≤ 0.25
149 | TEWK | ≤ 0.25
150 | EENP | ≤ 0.25
151 | HWAY | ≤ 0.25
152 | QQCY | ≤ 0.25
153 | SHFQ | ≤ 0.25
154 | VLFT | ≤ 0.25
155 | PIPF | ≤ 0.25
156 | KILN | ≤ 0.25
157 | AMAH | 10.9
158 | TQIY | 1.32
159 | NRRT | ≤ 0.25
160 | PKVC | ≤ 0.25
161 | VTTN | ≤ 0.25
162 | WTLP | ≤ 0.25
163 | SGFT | ≤ 0.25
164 | RLPI | ≤ 0.25
165 | QIRP | ≤ 0.25
166 | NQVI | ≤ 0.25
167 | VQHA | ≤ 0.25
168 | MYQL | ≤ 0.25

Row | Variant | enrichment ratio
169 | PKMN | ≤ 0.25
170 | GCSC | ≤ 0.25
171 | MAIC | ≤ 0.25
172 | FTWY | ≤ 0.25
173 | THGE | ≤ 0.25
174 | AHPL | ≤ 0.25
175 | KSES | ≤ 0.25
176 | ELNT | ≤ 0.25
177 | SPRE | ≤ 0.25
178 | KCSL | ≤ 0.25
179 | TRHH | 2.69
180 | TADL | 4.99
181 | PGFT | ≤ 0.25
182 | NQSC | ≤ 0.25
183 | FFYI | ≤ 0.25
184 | RAYP | ≤ 0.25
185 | AILW | ≤ 0.25
186 | EQST | ≤ 0.25
187 | TKVF | 3.68
188 | FAHT | ≤ 0.25
189 | IRAC | ≤ 0.25
190 | AQCI | 8.62
191 | WVHF | ≤ 0.25
192 | LEHK | ≤ 0.25

Row | Variant | enrichment ratio
193 | ADFQ | ≤ 0.25
194 | VMRP | ≤ 0.25
195 | HLFV | ≤ 0.25
196 | NSMD | ≤ 0.25
197 | HFTI | ≤ 0.25
198 | PNCQ | ≤ 0.25
199 | RDMQ | ≤ 0.25
200 | NWIY | ≤ 0.25
201 | VRQG | ≤ 0.25
202 | IHMS | ≤ 0.25
203 | TCHK | 3.74
204 | FELM | 7.7
205 | LKDV | ≤ 0.25
206 | GTMP | ≤ 0.25
207 | FYPQ | ≤ 0.25
208 | ARAY | 1.11
209 | WWKF | ≤ 0.25
210 | MERY | ≤ 0.25
211 | YEKP | ≤ 0.25
212 | HNFM | ≤ 0.25
213 | DMGD | ≤ 0.25
214 | QFEN | ≤ 0.25
215 | EETK | ≤ 0.25
216 | REWQ | ≤ 0.25

Row | Variant | enrichment ratio
217 | PMVW | ≤ 0.25
218 | EANQ | ≤ 0.25
219 | SKMN | ≤ 0.25
220 | VFWN | ≤ 0.25
221 | IAVE | ≤ 0.25
222 | WKVR | ≤ 0.25
223 | SQWQ | ≤ 0.25
224 | GTGW | ≤ 0.25
225 | YCTD | ≤ 0.25
226 | GMVN | ≤ 0.25
227 | FNPN | ≤ 0.25
228 | MVLA | ≤ 0.25
229 | LFCV | ≤ 0.25
230 | YEDC | ≤ 0.25
231 | TLFL | ≤ 0.25
232 | MDQD | ≤ 0.25
233 | DDDS | ≤ 0.25
234 | KYWS | ≤ 0.25
235 | PLGC | ≤ 0.25
236 | MPPI | ≤ 0.25
237 | DTMQ | ≤ 0.25
238 | IINH | ≤ 0.25
239 | QHGY | 8.42
240 | SEDS | ≤ 0.25

Row | Variant | enrichment ratio
241 | RYQH | ≤ 0.25
242 | FSQS | ≤ 0.25
243 | FAAR | ≤ 0.25
244 | KNHF | ≤ 0.25
245 | LVRA | ≤ 0.25
246 | RNRW | ≤ 0.25
247 | GMMS | ≤ 0.25
248 | SKSK | ≤ 0.25
249 | VCYF | ≤ 0.25
250 | YAAF | ≤ 0.25
251 | SYWA | ≤ 0.25
252 | FWYT | ≤ 0.25
253 | TTQG | 6.42
254 | IKEK | ≤ 0.25
255 | VVNV | ≤ 0.25
256 | NWEH | ≤ 0.25
257 | VCWH | ≤ 0.25
258 | HWIG | ≤ 0.25
259 | DHIR | ≤ 0.25
260 | HMWL | ≤ 0.25
261 | IMFC | ≤ 0.25
262 | EFHA | ≤ 0.25
263 | EFLR | ≤ 0.25
264 | ALPE | ≤ 0.25

Row | Variant | enrichment ratio
265 | KDQD | ≤ 0.25
266 | WYQK | ≤ 0.25
267 | QHNW | ≤ 0.25
268 | CMIP | ≤ 0.25
269 | FNYV | ≤ 0.25
270 | PDFR | ≤ 0.25
271 | SMTV | 11.4
272 | MFLQ | ≤ 0.25
273 | TQVQ | 13.8
274 | MDVI | ≤ 0.25
275 | EYKM | ≤ 0.25
276 | MWPF | ≤ 0.25
277 | ECLS | ≤ 0.25
278 | HGQH | ≤ 0.25
279 | RSQN | ≤ 0.25
280 | GLAR | ≤ 0.25
281 | YFYM | ≤ 0.25
282 | STSD | ≤ 0.25
283 | SMTM | 14.9
284 | MECM | 36.6
285 | QYSG | ≤ 0.25
286 | NKAE | ≤ 0.25
287 | KHKL | ≤ 0.25
288 | NQTG | ≤ 0.25

Row | Variant | enrichment ratio
289 | QTSD | ≤ 0.25
290 | FVIW | ≤ 0.25
291 | DCSK | ≤ 0.25
292 | QFPR | ≤ 0.25
293 | IKKA | ≤ 0.25
294 | SDII | 11.7
295 | YEGN | ≤ 0.25
296 | FNLD | ≤ 0.25
297 | VTSF | ≤ 0.25
298 | ETAA | ≤ 0.25
299 | PFGL | ≤ 0.25
300 | SSVF | 7.73
301 | LNKA | ≤ 0.25
302 | QSRP | ≤ 0.25
303 | ITHE | ≤ 0.25
304 | SSVG | 8.46
305 | QENG | ≤ 0.25
306 | CSSV | 0.253
